What was measured:
mouse podoplanin (PDPN) = target: T1, mouse podoplanin (PDPN) (mouse (endogenous in primary cultured …, UniProt Q62011 23-172)); test: cell-based or functional assay
T1 sequence (looked up): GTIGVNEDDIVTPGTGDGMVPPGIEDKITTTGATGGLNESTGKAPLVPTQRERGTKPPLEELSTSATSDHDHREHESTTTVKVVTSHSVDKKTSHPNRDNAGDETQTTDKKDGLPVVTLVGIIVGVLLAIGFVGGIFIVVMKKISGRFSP

[1] = target: the molecule itself; test: native gel or EMSA; Blue Native PAGE of the purified recombinant proteins in aqueous solution

B1: Fc-CLEC-2, a fusion of the Fc tag and C-terminal extracellular domain of human CLEC-2 ([…]) (Fc fusion)
chain: not shown
notes: C-type lectin-like receptor 2 (CLEC-2), human, C-terminal extracellular domain, […]; Tetramer of about 240 kDa by Blue Native PAGE; Fc alone is also a tetramer; also called Fc-human CLEC-2; recombinant Fc-human CLEC-2
Mouse podoplanin (PDPN)
  pERM/ERM ratio by Western blot in cultured podocytes treated with Fc-CLEC-2 at 37 C for 1 h, against Fc: 0.47 fold
[1]
  stoichiometry N: 4
